For eight compounds, Potency results are on record in PubChem BioAssay (Tox21).

Assay [1] can be described thus: qHTS assay to identify small molecule antagonists of the glucocorticoid receptor (GR) signaling pathway - cell viability counter screen (AID 720693). Note: nearly all actives have a fitted effect of over 55% in size. Conditions: GR-bla HeLa viability, CellTiter-Glo luminescence, 18 h, with 5 nM dexamethasone present; series mostly up to 58.5 µM. On the technique in general: Quantitative high-throughput screening tests each substance at several concentrations.

Assay [2] addresses Androgen receptor (Homo sapiens) (UniProt P10275). Briefly: qHTS assay to identify small molecule agonists of the androgen receptor (AR) signaling pathway using the MDA cell line (AID 743040; note: nearly all actives have a fitted effect of over 20% in size). Conditions: MDA-kb2 AR-luc cells, MMTV luciferase, 16 h; series mostly up to 95 µM.
Assay [3] in a line: qHTS assay to identify small molecule antagonists of the thyroid receptor (TR) signaling pathway (AID 743065). Note: nearly all actives have a fitted effect of over 55% in size. Conditions: GH3.TRE-Luc, T3-stimulated luciferase inhibition, 23.5 h; series mostly up to 32.5 µM. The procedure, abridged: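 Antagonism measured as loss of luciferase signal in GH3 cells stably carrying a TRE-luciferase reporter, co-treated with compound and T3 (1 nM final) for 23.5 h at 37 C. Viability was read in the same well by CellTiter-Fluor.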

Assay [4] is described as follows: qHTS assay to identify small molecule agonists of the constitutive androstane receptor (CAR) signaling pathway - cell viability counter screen (AID 1224836). Note: nearly all actives have a fitted effect of over 45% in size. Conditions: HepG2-CYP2B6-hCAR viability, CellTiter-Fluor, 23 h, PK11195 added to every well; series mostly up to 42.5 µM. An outline of the steps: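 Compound titrations (15 concentrations) went onto HepG2-CYP2B6-hCAR cells 4 h after seeding, alongside PK11195 at a final 0.75 uM; a 23 h, 37 C/5% CO2 incubation preceded CellTiter-Fluor viability measurement.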

Assay [5] in a line: qHTS assay to identify small molecule antagonists of the constitutive androstane receptor (CAR) signaling pathway - cell viability counter screen (AID 1224837). Note: nearly all actives have a fitted effect of over 45% in size. The conditions noted are these: HepG2-CYP2B6-hCAR viability, CellTiter-Fluor, 23 h, co-treated with 50 nM CITCO; series mostly up to 42.5 µM. An outline of the steps: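 Fluorescence from CellTiter-Fluor served as the viability signal. Human hepatoma HepG2 cells stably bearing hCAR and CYP2B6-2.2kb received compound plus CITCO (50 nM final) for 23 hr.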

The nature of assay [6]: A CellTox Green Cytotoxicity Assay to monitor cytotoxicity in HEK293 cells - 24 hour (AID 1224875). Note: nearly all actives have a fitted effect of over 45% in size. Conditions: CellTox Green fluorescence; series mostly up to 76.8 µM. The procedure, abridged: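 Each value comes from one timepoint of a single continuous run in which HEK293 cells with CellTox Green were exposed to compound for up to 40 h at 37 C, dye fluorescence rising with cell death.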

The nature of assay [7]: qHTS assay to identify small molecule antagonists of the estrogen receptor alpha (ER-alpha) signaling pathway using the BG1 cell line in the presence of 0.1 nM 17-beta-estradiol - cell viability counter screen (AID 1259241). Note: nearly all actives have a fitted effect of over 40% in size. Conditions: VM7Luc4E2 (BG1) viability, CellTiter-Fluor protease, 22 h, 0.1 nM estradiol agonist added; series mostly up to 92.4 µM. An outline of the steps: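 CellTiter-Fluor read (30 min, 37C) on ER-alpha/ERE-luc VM7Luc4E2 cells; 22 hr compound treatment; agonist 0.1 nM E2 final; same-well multiplex.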

Assay [8] is described as follows: qHTS assay to identify small molecule antagonists of the progesterone receptor (PR) signaling pathway - cell viability counter screen (AID 1346798). Note: nearly all actives have a fitted effect of over 50% in size. Conditions: PR-UAS-bla HEK293T viability, CellTiter-Glo luminescence, 16 h; series mostly up to 92.4 µM. The procedure, abridged:
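Measures cytotoxicity in parallel with the PR antagonist reporter read: HEK293T PR-UAS-bla cells get compound and R5020 for 16 hr, and remaining viable cells are quantified by CellTiter-Glo luminescence.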

Results filed as inconclusive are left out. Calls come from the whole dose curve; as a rule, active = well fitted curve in the direction sought with a large enough effect in the repeat runs; inconclusive = weak or mixed curves; inactive = no such curve, though single readings can be large; an effect the other way counts as inactive or inconclusive. Some structures have more than one record in an assay (separate samples or runs), and their calls can disagree. Some entries of the source have several records that differ or are many. They are shown here; other results are not. The source may hold further records. The values listed for one entry are repeats (runs, samples, wells, individuals or studies). What stands in brackets tells the records apart. A, B and so on number the origins entry by entry.
Potency is the fitted concentration of half-maximal effect.

UniProt P10275, sequence (P10275 whole entry, looked up): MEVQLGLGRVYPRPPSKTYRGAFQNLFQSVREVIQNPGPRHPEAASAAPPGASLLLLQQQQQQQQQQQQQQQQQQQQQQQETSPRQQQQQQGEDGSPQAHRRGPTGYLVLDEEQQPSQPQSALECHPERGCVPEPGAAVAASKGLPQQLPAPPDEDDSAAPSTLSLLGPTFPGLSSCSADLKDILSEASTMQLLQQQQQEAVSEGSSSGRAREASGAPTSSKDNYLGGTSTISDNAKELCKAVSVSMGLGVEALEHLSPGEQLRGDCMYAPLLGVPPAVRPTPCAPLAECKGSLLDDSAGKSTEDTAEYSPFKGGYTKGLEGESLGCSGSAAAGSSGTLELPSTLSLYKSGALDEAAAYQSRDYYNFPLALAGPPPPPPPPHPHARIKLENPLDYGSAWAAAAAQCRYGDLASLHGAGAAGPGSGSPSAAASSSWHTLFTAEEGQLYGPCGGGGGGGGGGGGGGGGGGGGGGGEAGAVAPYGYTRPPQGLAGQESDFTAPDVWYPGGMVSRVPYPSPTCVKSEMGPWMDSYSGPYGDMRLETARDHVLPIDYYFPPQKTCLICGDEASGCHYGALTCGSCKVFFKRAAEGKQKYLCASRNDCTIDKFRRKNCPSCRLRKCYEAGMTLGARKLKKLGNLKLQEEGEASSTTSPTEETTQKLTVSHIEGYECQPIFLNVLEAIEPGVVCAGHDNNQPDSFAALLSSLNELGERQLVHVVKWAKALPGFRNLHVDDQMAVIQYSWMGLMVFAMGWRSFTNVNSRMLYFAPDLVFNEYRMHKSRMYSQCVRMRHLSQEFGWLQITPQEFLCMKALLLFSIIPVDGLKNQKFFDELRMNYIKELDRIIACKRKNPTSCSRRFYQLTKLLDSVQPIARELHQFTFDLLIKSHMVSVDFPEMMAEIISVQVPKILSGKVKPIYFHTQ

Turning to `N=C(N)c1ccc(OCCCCCOc2ccc(C(=N)N)cc2)cc1`, the Potency result in assay [1] was “inactive [sample A] and active: 48.8 µM [sample B]”.
As for `O=C(c1ccccc1)c1ccccc1`, the Potency result in assay [2] was “active: 26.6 µM [sample A] and inactive [sample B] and inactive [sample C]”.
For the compound `CCCN(CCC)S(=O)(=O)c1ccc(C(=O)O)cc1`, the Potency entry in assay [2] was “active: 26.6 µM [sample A] and inactive [sample B] and inactive [sample C]”.
As for `Oc1ccc(/C=C/c2cc(O)cc(O)c2)cc1`, the Potency entry in assay [3] was “inactive [sample A] and active: 24.6 µM [sample B] and active: 27.3 µM [sample C]”.
In the case of `O=C(O)c1cc(N=Nc2ccc(S(=O)(=O)Nc3ccccn3)cc2)ccc1O`, the Potency entry in assay [4] was “active: 27.4 µM [sample A] and active: 27.3 µM [sample B] and inactive [sample C]”; in assay [5], “active: 30.7 µM [sample A] and active: 24.3 µM [sample B] and inactive [sample C]”.
For the compound `c1ccc2[nH]ccc2c1`, the Potency entry was “active: 16.9 µM [sample A] and inactive [sample B] and inactive [sample C]” in assay [4]; “active: 21.3 µM [sample A] and inactive [sample B] and inactive [sample C]” in assay [5]; “active: 12.1 µM [sample A] and inactive [sample B] and inactive [sample C]” in assay [6]; “active: 47.8 µM [sample A] and inactive [sample B] and inactive [sample C]” in assay [7]; “active: 30.1 µM [sample A] and inactive [sample B] and inactive [sample C]” in assay [8].
Regarding `Cc1cc(=O)n(-c2ccccc2)n1C`, in assay [6], the Potency entry is “active: 44.8 µM [sample A] and inactive [sample B] and inactive [sample C]”.
Consider `Cn1cc[nH]c1=S`, for which the Potency entry in assay [8] was “active: 21.7 µM [sample A] and inactive [sample B] and inactive [sample C]”.
